Experimental data as given in PubChem BioAssay AID686979 (National Center for Advancing Translational Sciences (NCATS), 2013).
Several values for one entry are separate records, joined by “and”; a condition that tells them apart may be missing. Equal entries are not always repeated. About 50,000 (12%) of roughly 420,000 compounds were called active. The inconclusive results got no clear call from the source; some entries with a clear call stand among them for comparison. Calls follow the shape of the dose curve; as a rule, active = well fitted inhibition curve with a large enough effect; inconclusive = small, poorly fitted or top-dose-only effect; inactive = flat fitted curve, though single readings scatter. Where the call is inconclusive, the potency comes from a doubtful curve fit.

Test: qHTS for Inhibitors of human tyrosyl-DNA phosphodiesterase 1 (TDP1): qHTS in cells in presence of CPT; also: nearly all actives have a fitted effect of over 55% in size
Details: chicken DT40 Tdp1-/-;hTDP1 cells + 20 nM CPT, ATP luminescence, 48 h; activity change, negative = growth inhibition: at 46.2 µM (top of the series) unless noted
In short: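 Chicken DT40 Tdp1-/- cells stably complemented with human TDP1 were seeded at 400 cells/well in medium containing 20 nM camptothecin, exposed to pin-transferred compounds, and grown at 37 °C for at least 48 hr. Viability was read as ATP luminescence.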
% is scaled to controls: 0 for no effect and ±100 for the full control effect; potency is read from the fitted curve at half-maximal effect; tags tell the direction and shape of the fitted curve.

Row | Compound | activity change, negative = growth inhibition | Potency
1 | COc1ccc(-c2cc(C(=O)N/N=C(\C)c3ccco3)c3ccccc3n2)c(OC)c1 | inconclusive: -35% [inhibitor] | 
2 | Cn1ncc2c(N3CCOCC3)ncnc21 |  | inactive
3 | Cc1ccc(NC(=O)N/C=C/c2ccco2)cc1C |  | inconclusive: 29.1 µM [inhibitor, single point]
4 | CCOC(=O)c1ccc(NC(=S)N2CCSC2c2ccc(Br)cc2)cc1 (stereo not given) |  | inconclusive: 20.6 µM [inhibitor, single point]
5 | COC(=O)c1ccccc1NC(=O)CCCN1C(=O)C(c2ccccc2)Oc2cccnc21 (stereo not given) |  | inactive and inconclusive: 23.1 µM [inhibitor, single point]
6 | C/C=C/c1ccc(OCCCCNCc2ccco2)c(OC)c1 |  | active: 25.9 µM
7 | Cc1ccc(NC(=O)CNC(=O)N2CC(=O)Nc3ccccc32)cc1F |  | inconclusive: 13 µM [inhibitor, partial curve]
8 | CCOc1ccc(NC(=O)NNC(=O)c2ccc(CC)s2)cc1 |  | inactive
9 | CCn1c(SCC(=O)N2CCCc3ccccc32)nc2cccnc21 |  | inconclusive: 18.4 µM [inhibitor, single point]
10 | Cc1oc(-c2ccc(C(=O)NC(C)c3ccccc3)cc2)nc1CS(=O)(=O)c1ccccc1 (stereo not given) |  | inactive
11 | Cc1noc(N)c1C(=O)Nc1ccccc1F |  | inactive
12 | CCOC(=O)c1[nH]cc(-c2ccccc2)c1N1CCOCC1 |  | active: 16.4 µM
13 | COc1ccc2c(COC(=O)c3cccc(S(=O)(=O)NCC(C)C)c3)cc(=O)oc2c1 |  | inconclusive: 16.4 µM [inhibitor, single point]
14 | Cc1ccc(NC(=S)N(CCCN2CCC(C)CC2)Cc2ccco2)cc1 |  | inconclusive: 29.1 µM [inhibitor, single point]
15 | O=C(c1ccccc1F)N1CCC(c2nc3c(nnn3Cc3cccc(F)c3)c(=O)[nH]2)CC1 |  | inconclusive: 29.1 µM [inhibitor, single point]
16 | CC(=O)c1ccc(NC(=O)Nc2ccc([N+](=O)[O-])cc2C)cc1 |  | inconclusive: 20.6 µM [inhibitor, single point]
17 | Nc1ncnc2nn(C3OC(CO)C(O)C3O)nc12 (stereo not given) |  | active: 4.11 µM
18 | CC(=O)Nc1ccc(NC(=O)c2ccc(CN3CCc4ccccc4C3)cc2)cc1 |  | inactive
19 | Cc1c(CCO)sc[n+]1CC(=O)OC12CC3CC(CC(C3)C1)C2 |  | inconclusive: 29.1 µM [inhibitor, single point]
20 | O=C(NCc1ccccc1)C1C(=O)N(Cc2ccccc2)C(=O)C1C1(O)CCCC1 (stereo not given) |  | inconclusive: 13 µM [inhibitor, single point]
